No constants are given. Whether binding was seen depends on the method and setting. For part of these data: In cells and extracts the contact can be indirect. Some entries that bind do so weakly or less than the wild type.
How the values were obtained:
[1] = biological target: T1, FAAP100 (human (endogenous in HT1080 and HeLa)) (UniProt Q0VG06); assay: SEC; Superose 6 gel filtration of nuclear extract from HeLa cells; fractions immunoblotted; overlapping profiles (co-fractionation)
T1 sequence: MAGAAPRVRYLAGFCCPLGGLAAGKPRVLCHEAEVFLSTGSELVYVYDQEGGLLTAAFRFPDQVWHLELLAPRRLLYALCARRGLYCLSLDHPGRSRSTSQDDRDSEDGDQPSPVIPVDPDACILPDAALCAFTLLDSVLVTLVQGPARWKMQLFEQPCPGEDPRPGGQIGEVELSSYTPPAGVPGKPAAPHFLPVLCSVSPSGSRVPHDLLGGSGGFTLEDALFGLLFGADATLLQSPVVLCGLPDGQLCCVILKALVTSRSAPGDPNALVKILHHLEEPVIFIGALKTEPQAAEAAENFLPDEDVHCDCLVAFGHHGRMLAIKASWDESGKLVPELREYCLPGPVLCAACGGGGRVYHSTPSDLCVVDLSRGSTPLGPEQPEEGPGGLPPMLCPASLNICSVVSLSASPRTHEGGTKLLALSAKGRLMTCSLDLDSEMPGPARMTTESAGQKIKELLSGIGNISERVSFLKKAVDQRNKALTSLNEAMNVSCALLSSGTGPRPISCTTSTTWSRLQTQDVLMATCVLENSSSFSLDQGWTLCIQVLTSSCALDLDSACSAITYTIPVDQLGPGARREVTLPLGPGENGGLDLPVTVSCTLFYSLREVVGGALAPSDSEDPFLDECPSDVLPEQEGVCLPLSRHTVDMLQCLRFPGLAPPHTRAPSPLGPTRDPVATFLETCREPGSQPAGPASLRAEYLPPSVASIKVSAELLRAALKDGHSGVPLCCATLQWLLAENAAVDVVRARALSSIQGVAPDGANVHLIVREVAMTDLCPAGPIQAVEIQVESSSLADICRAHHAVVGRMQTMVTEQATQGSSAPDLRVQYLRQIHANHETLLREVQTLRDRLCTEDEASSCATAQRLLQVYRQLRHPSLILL

Amino acid sequences for entries named in this document (tags omitted).
UniProt Q8N2Z9: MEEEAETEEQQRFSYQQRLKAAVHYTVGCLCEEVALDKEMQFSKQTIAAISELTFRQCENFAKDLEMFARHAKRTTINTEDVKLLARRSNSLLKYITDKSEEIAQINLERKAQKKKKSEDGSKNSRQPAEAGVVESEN
UniProt Q8IYD8: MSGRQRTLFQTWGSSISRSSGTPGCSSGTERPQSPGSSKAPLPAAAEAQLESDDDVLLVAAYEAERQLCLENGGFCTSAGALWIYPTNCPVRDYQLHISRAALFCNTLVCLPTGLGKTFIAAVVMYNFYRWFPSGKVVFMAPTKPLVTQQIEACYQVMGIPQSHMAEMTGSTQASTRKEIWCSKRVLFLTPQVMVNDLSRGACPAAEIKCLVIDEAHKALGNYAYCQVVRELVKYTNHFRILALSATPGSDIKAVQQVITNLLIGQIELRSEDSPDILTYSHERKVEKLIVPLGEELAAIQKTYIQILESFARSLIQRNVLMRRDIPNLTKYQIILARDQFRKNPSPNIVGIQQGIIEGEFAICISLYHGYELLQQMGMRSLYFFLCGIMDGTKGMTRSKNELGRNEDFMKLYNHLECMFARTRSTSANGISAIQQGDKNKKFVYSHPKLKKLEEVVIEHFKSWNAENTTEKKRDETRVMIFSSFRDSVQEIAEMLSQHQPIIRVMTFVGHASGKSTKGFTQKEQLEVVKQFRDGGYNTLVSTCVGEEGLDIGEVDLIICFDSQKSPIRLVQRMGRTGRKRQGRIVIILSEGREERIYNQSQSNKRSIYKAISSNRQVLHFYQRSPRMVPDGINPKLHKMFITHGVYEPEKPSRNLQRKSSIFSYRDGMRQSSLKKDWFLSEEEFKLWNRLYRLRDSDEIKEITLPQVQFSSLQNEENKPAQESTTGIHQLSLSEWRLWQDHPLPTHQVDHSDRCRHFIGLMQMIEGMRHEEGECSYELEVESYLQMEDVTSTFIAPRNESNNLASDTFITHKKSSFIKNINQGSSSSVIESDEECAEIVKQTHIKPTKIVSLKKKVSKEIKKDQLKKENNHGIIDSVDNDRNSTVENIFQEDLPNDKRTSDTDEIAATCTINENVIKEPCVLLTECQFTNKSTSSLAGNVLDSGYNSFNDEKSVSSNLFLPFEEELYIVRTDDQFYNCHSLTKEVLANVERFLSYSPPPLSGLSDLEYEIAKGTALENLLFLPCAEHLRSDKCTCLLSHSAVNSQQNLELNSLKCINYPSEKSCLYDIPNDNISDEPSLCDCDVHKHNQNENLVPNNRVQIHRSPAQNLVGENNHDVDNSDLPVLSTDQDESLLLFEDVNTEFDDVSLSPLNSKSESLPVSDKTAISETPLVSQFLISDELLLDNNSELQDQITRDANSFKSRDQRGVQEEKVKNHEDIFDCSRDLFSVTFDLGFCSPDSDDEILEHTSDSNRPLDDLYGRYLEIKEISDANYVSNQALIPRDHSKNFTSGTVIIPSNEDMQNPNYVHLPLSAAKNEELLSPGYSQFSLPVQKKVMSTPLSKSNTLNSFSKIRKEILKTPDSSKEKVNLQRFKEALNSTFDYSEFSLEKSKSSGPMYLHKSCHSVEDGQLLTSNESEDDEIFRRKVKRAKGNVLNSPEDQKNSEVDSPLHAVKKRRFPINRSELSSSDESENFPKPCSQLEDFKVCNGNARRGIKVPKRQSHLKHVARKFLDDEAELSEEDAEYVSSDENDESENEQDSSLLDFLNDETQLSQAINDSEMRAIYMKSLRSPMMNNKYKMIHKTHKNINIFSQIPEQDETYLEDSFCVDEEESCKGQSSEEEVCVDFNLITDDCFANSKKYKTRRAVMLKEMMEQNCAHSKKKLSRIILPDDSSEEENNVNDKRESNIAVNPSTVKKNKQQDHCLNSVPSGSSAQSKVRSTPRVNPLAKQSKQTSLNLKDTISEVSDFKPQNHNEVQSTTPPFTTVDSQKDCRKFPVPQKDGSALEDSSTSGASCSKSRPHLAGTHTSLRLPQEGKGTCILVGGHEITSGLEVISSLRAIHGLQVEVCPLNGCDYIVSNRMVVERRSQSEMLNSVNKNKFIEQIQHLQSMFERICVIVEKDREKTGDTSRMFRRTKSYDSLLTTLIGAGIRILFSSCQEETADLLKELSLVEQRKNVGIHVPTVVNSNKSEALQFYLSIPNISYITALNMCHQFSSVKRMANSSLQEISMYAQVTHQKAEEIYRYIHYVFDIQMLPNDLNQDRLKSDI

[2] = biological target: T2, FANCA (human (endogenous in HT1080 and HeLa)) (UniProt O15360); assay: as above
T2 sequence: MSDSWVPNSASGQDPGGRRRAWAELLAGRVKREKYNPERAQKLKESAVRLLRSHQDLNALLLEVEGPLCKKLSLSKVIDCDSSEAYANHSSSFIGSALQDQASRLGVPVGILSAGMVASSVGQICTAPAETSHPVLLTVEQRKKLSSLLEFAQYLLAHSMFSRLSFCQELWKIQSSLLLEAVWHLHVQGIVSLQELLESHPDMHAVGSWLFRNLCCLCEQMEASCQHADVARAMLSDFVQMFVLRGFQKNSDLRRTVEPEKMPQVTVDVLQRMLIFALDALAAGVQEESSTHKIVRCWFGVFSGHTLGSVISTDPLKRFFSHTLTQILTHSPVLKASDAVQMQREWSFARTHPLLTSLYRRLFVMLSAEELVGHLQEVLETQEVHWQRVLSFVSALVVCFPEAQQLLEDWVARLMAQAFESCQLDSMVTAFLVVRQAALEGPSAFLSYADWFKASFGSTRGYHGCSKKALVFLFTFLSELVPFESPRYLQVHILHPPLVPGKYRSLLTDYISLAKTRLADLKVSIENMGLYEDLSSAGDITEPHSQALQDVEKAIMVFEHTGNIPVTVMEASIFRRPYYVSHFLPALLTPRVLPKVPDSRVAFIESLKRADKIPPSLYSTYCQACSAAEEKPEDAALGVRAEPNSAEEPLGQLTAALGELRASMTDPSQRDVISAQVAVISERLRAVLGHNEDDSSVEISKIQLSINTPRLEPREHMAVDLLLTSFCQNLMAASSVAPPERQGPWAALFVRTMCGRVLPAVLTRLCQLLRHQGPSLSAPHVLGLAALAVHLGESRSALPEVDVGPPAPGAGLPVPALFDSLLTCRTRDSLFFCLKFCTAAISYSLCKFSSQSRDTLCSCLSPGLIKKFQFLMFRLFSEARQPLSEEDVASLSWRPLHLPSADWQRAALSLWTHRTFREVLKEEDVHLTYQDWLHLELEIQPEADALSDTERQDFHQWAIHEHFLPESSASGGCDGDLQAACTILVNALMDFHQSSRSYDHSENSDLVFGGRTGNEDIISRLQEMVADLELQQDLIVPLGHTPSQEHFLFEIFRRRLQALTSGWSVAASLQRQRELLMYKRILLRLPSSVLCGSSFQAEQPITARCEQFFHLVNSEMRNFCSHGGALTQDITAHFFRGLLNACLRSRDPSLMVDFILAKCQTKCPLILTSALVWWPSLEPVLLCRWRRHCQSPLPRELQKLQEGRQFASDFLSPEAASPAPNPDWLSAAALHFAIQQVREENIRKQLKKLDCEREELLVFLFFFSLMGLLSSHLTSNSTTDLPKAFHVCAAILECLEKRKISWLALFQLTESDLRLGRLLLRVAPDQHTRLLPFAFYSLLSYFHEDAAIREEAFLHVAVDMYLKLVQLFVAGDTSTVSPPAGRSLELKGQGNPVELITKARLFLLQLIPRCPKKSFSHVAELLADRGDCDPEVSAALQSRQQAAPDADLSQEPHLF

[3] = biological target: MHF1 (human (endogenous in HT1080 and HeLa)) (UniProt Q8N2Z9); assay: as above
[4] = biological target: T3, FAAP20 (human (endogenous in HT1080 and HeLa)) (UniProt Q6NZ36); assay: as above
T3 sequence: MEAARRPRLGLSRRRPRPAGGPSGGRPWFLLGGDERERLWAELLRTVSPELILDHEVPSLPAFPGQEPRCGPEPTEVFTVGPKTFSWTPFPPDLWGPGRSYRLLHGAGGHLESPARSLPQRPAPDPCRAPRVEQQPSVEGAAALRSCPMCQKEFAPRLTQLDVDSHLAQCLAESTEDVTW

[5] = biological target: FANCM (endogenous) (human (endogenous in HeLa)) (UniProt Q8IYD8); assay: as above
[6] = biological target: His-Flag tagged FANCM (UniProt Q8IYD8); assay: co-IP; two-step affinity purification of HF-FANCM from nuclear extract of HT1080 cells (anti-Flag M2 agarose, elution with 3xFlag peptide, then Talon metal affinity resin with 3 mM imidazole); eluate immunoblotted

Measured: binding

B1: endogenous FoxF1 protein (Forkhead box F1) (protein, UniProt Q12946 1-379)
chain: MSSAPEKQQPPHGGGGGGGGGGGAAMDPASSGPSKAKKTNAGIRRPEKPPYSYIALIVMAIQSSPTKRLTLSEIYQFLQSRFPFFRGSYQGWKNSVRHNLSLNECFIKLPKGLGRPGKGHYWTIDPASEFMFEEGSFRRRPRGFRRKCQALKPMYSMMNGLGFNHLPDTYGFQGSAGGLSCPPNSLALEGGLGMMNGHLPGNVDGMALPSHSVPHLPSNGGHSYMGGCGGAAAGEYPHHDSSVPASPLLPTGAGGVMEPHAVYSGSAAAWPPSASAALNSGASYIKQQPLSPCNPAANPLSGSLSTHSLEQPYLHQNSHNAPAELQGIPRYHSQSPSMCDRKEFVFSFNAMASSSMHSAGGGSYYHQQVTYQDIKPCVM
binds: all assays above
